# Results reported in PubChem BioAssay (NCI).
#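 Cultured in 96-well plates, cells were exposed to test compound for 48 hours across five concentrations. At the GI50, growth is halved.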 Not every entry of the source has a single result; some have several. Only these are listed. There may be further records. For part of these data: A record mostly stands for its own series of concentrations, not given here; some values may only mark the edge of a range. For part of these data: Values that stand side by side repeat one measurement in other runs, samples, wells, individuals or studies. A tag in brackets gives the origin of a value. Letters hold for one entry only.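 TGI marks complete inhibition of growth.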
# Columns and labels:
# Assay in all cases: NCI-60 cell line screen, 48 h
# OVCAR-8 ovarian = test system: OVCAR-8 ovarian
# U251 CNS = test system: U251 CNS
# T-47D breast = test system: T-47D breast
# M14 melanoma = test system: M14 melanoma
# SN12C renal = test system: SN12C renal
# MOLT-4 leukemia = test system: MOLT-4 leukemia
# LOX IMVI melanoma = test system: LOX IMVI melanoma
# UACC-62 melanoma = test system: UACC-62 melanoma
# HL-60(TB) leukemia = test system: HL-60(TB) leukemia
# K-562 leukemia = test system: K-562 leukemia
# A549 NSCLC = test system: A549 NSCLC
# NCI/ADR-RES ovarian = test system: NCI/ADR-RES ovarian
# NCI-H226 lung = test system: NCI-H226 lung
# UO-31 renal = test system: UO-31 renal
# HCT-116 colon = test system: HCT-116 colon
# KM12 colon = test system: KM12 colon
# CAKI-1 renal = test system: CAKI-1 renal
# TK-10 renal = test system: TK-10 renal
# SK-MEL-28 melanoma = test system: SK-MEL-28 melanoma
# SF-539 CNS = test system: SF-539 CNS
# COLO 205 colon = test system: COLO 205 colon
# HOP-92 NSCLC = test system: HOP-92 NSCLC
# SF-295 CNS = test system: SF-295 CNS
structure (smiles),measurement,setting,value
C=C/C=C/[C@@H](O)CC(=C)C[C@H]1OC2[C@H](C)[C@@H](OC(=O)C[C@H]3C[C@H](OC(C)=O)C[C@@]4(C[C@@](C)(O)C[C@H](CC(=C)[C@@H](C)[C@H](OC(C)=O)[C@H](C)C(=O)C[C@@H]5C[C@H](OC)CC6(C[C@@H](O)C[C@H](/C=C\CCC[C@H]7O[C@](O)(C=C[C@H]7C)[C@H]2O)O6)O5)O4)O3)[C@@H]1O,TGI,OVCAR-8 ovarian,9.81 nM [1 test] and > 25 µM [mean of 2 tests]
same,GI50,U251 CNS,0.12 nM [1 test] and 2.5 nM [mean of 2 tests]
same,GI50,T-47D breast,0.524 nM and 13.3 µM
same,GI50,M14 melanoma,0.195 nM [1 test] and 2.5 nM [mean of 2 tests]
same,TGI,SN12C renal,7.02 nM [1 test] and > 9.66 µM [mean of 2 tests]
same,GI50,MOLT-4 leukemia,0.045 nM [1 test] and 2.5 nM [mean of 2 tests]
same,TGI,MOLT-4 leukemia,2.19 nM [1 test] and > 25 µM [mean of 2 tests]
same,GI50,LOX IMVI melanoma,0.0985 nM [1 test] and 2.5 nM [mean of 2 tests]
same,TGI,LOX IMVI melanoma,23.6 nM [1 test] and > 11.1 µM [mean of 2 tests]
same,GI50,UACC-62 melanoma,0.0273 nM [1 test] and 2.5 nM [mean of 2 tests]
same,TGI,UACC-62 melanoma,0.318 nM [1 test] and > 25 µM [mean of 2 tests]
same,GI50,HL-60(TB) leukemia,0.016 nM [1 test] and 2.5 nM [mean of 2 tests]
same,TGI,HL-60(TB) leukemia,1.94 nM [1 test] and 5.88 µM [mean of 2 tests]
same,GI50,K-562 leukemia,0.0737 nM [1 test] and 2.5 nM [mean of 2 tests]
same,GI50,A549 NSCLC,0.155 nM [1 test] and 2.5 nM [mean of 2 tests]
same,TGI,A549 NSCLC,0.833 nM [1 test] and > 25 µM [mean of 2 tests]
same,GI50,NCI/ADR-RES ovarian,42.4 nM [1 test] and 4.1 nM [mean of 2 tests]
same,TGI,NCI-H226 lung,34.3 nM [1 test] and 8.88 µM [mean of 2 tests]
same,GI50,UO-31 renal,26.3 nM [1 test] and 2.5 nM [mean of 2 tests]
same,GI50,HCT-116 colon,0.0512 nM [1 test] and 2.5 nM [mean of 2 tests]
same,TGI,KM12 colon,3.85 nM and > 25 µM
same,TGI,CAKI-1 renal,68.4 nM [1 test] and > 15.7 µM [mean of 2 tests]
same,TGI,TK-10 renal,8.3 nM [1 test] and > 23.9 µM [mean of 2 tests]
same,GI50,SK-MEL-28 melanoma,0.238 nM and 2.5 nM
O=C1CC(c2cccc(F)c2)Nc2cc3c(cc21)OCO3 (stereo not given),TGI,SF-539 CNS,121 nM and > 100 µM
same,TGI,NCI-H226 lung,200 nM and > 100 µM
same,TGI,COLO 205 colon,195 nM and > 100 µM
CC(N)(Cc1c[nH]c2cccc(F)c12)C(=O)O (stereo not given),GI50,HOP-92 NSCLC,35.8 µM and > 1 mM
CC(C)(C)C1CCC2c3c([nH]c4ccccc34)C3C(=O)N(c4ccc(Cl)cc4)C(=O)C3C2C1 (stereo not given),GI50,SF-295 CNS,"> 100 µM [sample A, 1 test] and 36.1 nM [sample B, 1 test]"
same,TGI,SF-295 CNS,"> 100 µM [sample A, 1 test] and 1.07 µM [sample B, 1 test]"
